For two substances, binding results are on record in publication PMC12796746.

Results are given in words; binding and its absence hold for the method and conditions named.

Assay [1] addresses T1, Rho guanine nucleotide exchange factor 10 (on the HuProt array) (human) (UniProt O15013).
T1 sequence: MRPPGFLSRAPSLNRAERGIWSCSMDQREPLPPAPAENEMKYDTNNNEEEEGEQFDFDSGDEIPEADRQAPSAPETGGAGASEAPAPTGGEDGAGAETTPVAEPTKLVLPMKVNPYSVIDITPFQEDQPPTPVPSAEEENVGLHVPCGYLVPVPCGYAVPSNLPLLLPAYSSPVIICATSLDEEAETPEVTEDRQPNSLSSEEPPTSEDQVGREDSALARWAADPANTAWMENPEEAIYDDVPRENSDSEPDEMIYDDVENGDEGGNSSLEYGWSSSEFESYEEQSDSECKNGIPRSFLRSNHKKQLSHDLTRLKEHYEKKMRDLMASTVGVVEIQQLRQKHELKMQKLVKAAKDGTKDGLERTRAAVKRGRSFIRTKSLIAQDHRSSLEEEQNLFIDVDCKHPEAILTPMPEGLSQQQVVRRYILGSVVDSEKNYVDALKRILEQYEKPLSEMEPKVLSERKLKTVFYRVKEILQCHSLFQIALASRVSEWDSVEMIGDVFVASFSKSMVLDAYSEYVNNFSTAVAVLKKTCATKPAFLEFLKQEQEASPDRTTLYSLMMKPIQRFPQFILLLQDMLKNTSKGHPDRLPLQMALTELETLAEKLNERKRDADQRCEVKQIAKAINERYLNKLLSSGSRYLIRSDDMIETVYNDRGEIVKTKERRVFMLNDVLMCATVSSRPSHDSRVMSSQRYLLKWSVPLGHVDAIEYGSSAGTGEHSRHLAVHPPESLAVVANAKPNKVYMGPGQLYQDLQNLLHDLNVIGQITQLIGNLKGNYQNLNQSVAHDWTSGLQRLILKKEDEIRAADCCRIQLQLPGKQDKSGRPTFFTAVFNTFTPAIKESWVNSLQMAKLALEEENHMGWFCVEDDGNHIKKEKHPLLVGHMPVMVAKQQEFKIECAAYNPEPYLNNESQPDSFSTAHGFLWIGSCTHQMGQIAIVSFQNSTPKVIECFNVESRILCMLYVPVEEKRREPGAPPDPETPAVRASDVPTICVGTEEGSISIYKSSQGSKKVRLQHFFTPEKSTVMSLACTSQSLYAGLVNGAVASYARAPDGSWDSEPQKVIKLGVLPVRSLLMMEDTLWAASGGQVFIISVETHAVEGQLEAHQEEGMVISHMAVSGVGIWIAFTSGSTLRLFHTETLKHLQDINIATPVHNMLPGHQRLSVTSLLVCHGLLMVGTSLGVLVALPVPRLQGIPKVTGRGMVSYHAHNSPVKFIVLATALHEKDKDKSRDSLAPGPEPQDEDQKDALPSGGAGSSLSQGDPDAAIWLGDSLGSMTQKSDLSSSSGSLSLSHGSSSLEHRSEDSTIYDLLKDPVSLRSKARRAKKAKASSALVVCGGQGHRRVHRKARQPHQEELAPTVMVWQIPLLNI
The experiment in a line: peptide or protein array; HuProt Human Proteome Microarray v2.0, full-length human proteins spotted in duplicate; V5-tagged TRPV4 protein in solution at 1 μM, 1 h at 4 °C, 150 mM NaCl, 2.7 mM KCl, 25 mM Trizma base, 0.05% Tween-20, pH 7.4; detected with Alexa Fluor 647 anti-V5; hit: z-score >= 2 (N terminus: both of 2 slides; ARD constructs: at least 2 of 3 slides); both purified.

Assay [2] has as its target T2, SH3 domain-containing protein 19 (human) (UniProt Q5HYK7).
T2 sequence: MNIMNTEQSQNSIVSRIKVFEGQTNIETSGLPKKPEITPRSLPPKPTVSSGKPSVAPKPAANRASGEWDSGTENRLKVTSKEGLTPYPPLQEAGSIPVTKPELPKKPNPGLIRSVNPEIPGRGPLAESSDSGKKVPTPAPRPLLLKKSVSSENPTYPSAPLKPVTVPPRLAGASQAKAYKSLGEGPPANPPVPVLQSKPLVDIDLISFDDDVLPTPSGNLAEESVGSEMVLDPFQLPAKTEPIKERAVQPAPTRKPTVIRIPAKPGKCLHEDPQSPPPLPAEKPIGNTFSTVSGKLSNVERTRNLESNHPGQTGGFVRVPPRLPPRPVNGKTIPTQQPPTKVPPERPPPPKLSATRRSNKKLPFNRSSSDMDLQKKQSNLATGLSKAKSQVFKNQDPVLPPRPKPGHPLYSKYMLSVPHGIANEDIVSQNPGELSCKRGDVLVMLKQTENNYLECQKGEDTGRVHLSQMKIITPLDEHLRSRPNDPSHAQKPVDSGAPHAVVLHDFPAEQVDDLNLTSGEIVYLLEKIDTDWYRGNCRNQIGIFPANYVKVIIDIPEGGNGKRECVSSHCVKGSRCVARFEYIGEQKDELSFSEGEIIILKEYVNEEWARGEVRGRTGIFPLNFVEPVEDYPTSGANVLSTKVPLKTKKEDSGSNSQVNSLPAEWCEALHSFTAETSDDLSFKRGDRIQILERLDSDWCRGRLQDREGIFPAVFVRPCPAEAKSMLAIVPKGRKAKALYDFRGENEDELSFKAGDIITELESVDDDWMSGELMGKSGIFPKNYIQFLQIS
The description is as above.

Consider “TRPV4^R315W-ARD (from UniProt Q9HBA0 149-397) (domain or fragment)”, for which the binding result in assay [1] and in assay [2] was “no binding (tested: 1 μM)” in each case.
For the substance “TRPV4^R269C-ARD (from UniProt Q9HBA0 149-397) (domain or fragment)”, the binding entry in assay [1] and in assay [2] was “no binding (tested: 1 μM)” throughout.
